Hit rate of the full screen: of about 310,000 compounds, about 14,000 (4.5%) showed an effect of 50% or more. The effect is printed as a negative number. The list shows a part of the results.
What follows are compounds tested against human ether-à-go-go-related gene (hERG) potassium channel (human, UniProt Q12809) (assay: primary screen, population patch clamp on CHO cells stably expressing hERG).
Chain of human ether-à-go-go-related gene (hERG) potassium channel (Q12809 whole entry, looked up): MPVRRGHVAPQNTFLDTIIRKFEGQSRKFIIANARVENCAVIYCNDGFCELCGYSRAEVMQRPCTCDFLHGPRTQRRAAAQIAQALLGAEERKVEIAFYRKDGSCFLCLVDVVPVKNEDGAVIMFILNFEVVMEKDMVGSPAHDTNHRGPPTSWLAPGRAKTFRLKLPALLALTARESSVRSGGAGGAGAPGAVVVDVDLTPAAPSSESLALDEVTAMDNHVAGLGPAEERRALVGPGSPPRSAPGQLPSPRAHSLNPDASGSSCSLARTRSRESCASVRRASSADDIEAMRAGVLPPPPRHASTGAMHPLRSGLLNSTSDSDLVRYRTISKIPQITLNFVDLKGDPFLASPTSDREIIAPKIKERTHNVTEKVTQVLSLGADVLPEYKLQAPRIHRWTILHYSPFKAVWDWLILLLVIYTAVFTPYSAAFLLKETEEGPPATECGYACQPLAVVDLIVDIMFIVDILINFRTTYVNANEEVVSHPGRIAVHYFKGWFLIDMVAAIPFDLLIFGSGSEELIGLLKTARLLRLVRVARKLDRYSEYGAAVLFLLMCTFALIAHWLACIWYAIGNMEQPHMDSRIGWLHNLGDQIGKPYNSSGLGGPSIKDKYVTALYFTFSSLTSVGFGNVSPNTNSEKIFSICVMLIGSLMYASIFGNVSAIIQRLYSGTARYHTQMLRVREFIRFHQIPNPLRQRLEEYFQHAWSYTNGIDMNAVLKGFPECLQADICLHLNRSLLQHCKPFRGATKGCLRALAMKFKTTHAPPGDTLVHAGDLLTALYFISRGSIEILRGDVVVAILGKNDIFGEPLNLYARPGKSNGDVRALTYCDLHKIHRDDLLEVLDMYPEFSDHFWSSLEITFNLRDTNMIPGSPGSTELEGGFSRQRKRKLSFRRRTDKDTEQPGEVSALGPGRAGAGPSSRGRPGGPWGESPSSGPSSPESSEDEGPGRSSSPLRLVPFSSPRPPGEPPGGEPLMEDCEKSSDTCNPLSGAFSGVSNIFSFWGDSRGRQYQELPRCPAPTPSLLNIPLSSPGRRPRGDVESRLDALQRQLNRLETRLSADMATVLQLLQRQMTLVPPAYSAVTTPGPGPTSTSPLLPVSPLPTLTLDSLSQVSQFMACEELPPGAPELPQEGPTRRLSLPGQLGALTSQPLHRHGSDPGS
With `CCn1c(=O)c([N+](=O)[O-])c(N2CCN(Cc3ccc4c(c3)OCO4)CC2)c2ccccc21` the “hERG current change (%, negative = inhibition) at 10uM” value was -3.18%.
`Cc1noc(C)c1C(=O)N1CCCC(C(=O)c2cccc(OC(C)C)c2)C1` (stereo not drawn) was tested, and the “hERG current change (%, negative = inhibition) at 10uM” value was -1.08%.
With `COc1ccccc1Nc1ncc(C(=O)N2CCC(C(N)=O)CC2)c2ccccc12` the “hERG current change (%, negative = inhibition) at 10uM” value was 1.89%.
For `COC(=O)c1cc2occc2n1CC(=O)Nc1ccc(OC)c(OC)c1OC`, the “hERG current change (%, negative = inhibition) at 10uM” value was 0.151%.
In the case of `Cc1cccc(NC(=O)c2ccc(NC(=O)CC3SC(N4CCCC4)=NC3=O)cc2)n1` (stereo not drawn), the “hERG current change (%, negative = inhibition) at 10uM” value is reported as -1.94%.
For `O=C(Nc1cccc(-c2cccc(Cl)c2)c1)C1CCN(CC2CCOC2)CC1` (stereo not drawn), the “hERG current change (%, negative = inhibition) at 10uM” value was -77.2%.
For `CCc1nnc(NC(=O)CSc2nnc(CNc3ccc(F)cc3)n2C2CCCCC2)s1`, the “hERG current change (%, negative = inhibition) at 10uM” value was -6.63%.
With `CC(C)(C)OC(=O)N[C@@H](CC(=O)OCc1ccccc1)C(=O)O` the “hERG current change (%, negative = inhibition) at 10uM” value was 10.9%.
For `Cc1cc[n+](CC[n+]2ccc(C)cc2)cc1.[Br-]`, the “hERG current change (%, negative = inhibition) at 10uM” value was 16.7%.
`CN(C)S(=O)(=O)N1CCCN(S(=O)(=O)N(C)C)CC1` was tested, and the “hERG current change (%, negative = inhibition) at 10uM” value was -0.127%.
With `Cc1ccc(C(=O)N/C(=C\c2cccs2)C(=O)N2CCN(C)CC2)cc1C` the “hERG current change (%, negative = inhibition) at 10uM” value was -70.6%.
With `CCCCCC(=O)Nc1nc2ccccc2[nH]1` the “hERG current change (%, negative = inhibition) at 10uM” value was 5.71%.
For `CCc1c(O)nc(SCC(=O)N2CCc3cc(OC)c(OC)cc3[C@@H]2C)[nH]c1=O`, the “hERG current change (%, negative = inhibition) at 10uM” value was 0.651%.
For `O=C(Nc1cccnc1Cl)c1cccs1`, the “hERG current change (%, negative = inhibition) at 10uM” value was 21.4%.
For `c1ccc(OCc2noc(CN3CCC(C4CCCCC4)C3)n2)cc1` (stereo not drawn), the “hERG current change (%, negative = inhibition) at 10uM” value was -12%.
For `CN(C)C(=O)N1CCC(C(=O)NC2CCCCCCC2)CC1`, the “hERG current change (%, negative = inhibition) at 10uM” value was -0.795%.
`NS(=O)(=O)c1ccc(NC(=O)COC(=O)c2ccco2)cc1` was tested, and the “hERG current change (%, negative = inhibition) at 10uM” value was 61%.
`O=C(c1cc(C(=O)c2ccco2)cc(C(=O)c2ccco2)c1)c1ccco1` was tested, and the “hERG current change (%, negative = inhibition) at 10uM” value was 0.697%.
In the case of `O=[N+]([O-])c1cc(Cl)ccc1N1CCCC1`, the “hERG current change (%, negative = inhibition) at 10uM” value is reported as 5.05%.
With `COc1ccc(S(=O)(=O)N(Cc2cc3cc(C)ccc3[nH]c2=O)CC2CCCO2)cc1` (stereo not drawn) the “hERG current change (%, negative = inhibition) at 10uM” value was -0.625%.
In the case of `[O-][n+]1cccc2ncc3cscc3c21`, the “hERG current change (%, negative = inhibition) at 10uM” value is reported as 24.2%.
`O=C(Nc1cccc2ccccc12)OC1C=CS(=O)(=O)C1` (stereo not drawn) was tested, and the “hERG current change (%, negative = inhibition) at 10uM” value was 7.41%.
For `CC(NC1CCCCC1)C(=O)NN=C(c1ccccc1)c1ccccc1` (stereo not drawn), the “hERG current change (%, negative = inhibition) at 10uM” value was -32.1%.
In the case of `CC1(OC(=O)c2cccs2)C(=O)C=C2C=C(C3CC3)OC=C2C1=O` (stereo not drawn), the “hERG current change (%, negative = inhibition) at 10uM” value is reported as 9.34%.
In the case of `C=CCNC(=S)Nc1sc2c(c1C#N)CCCC2`, the “hERG current change (%, negative = inhibition) at 10uM” value is reported as 18.7%.
`O=C(CSc1ccc(-c2cccnc2)nn1)Nc1ccc(F)c(F)c1` was tested, and the “hERG current change (%, negative = inhibition) at 10uM” value was -37.9%.
`O=C(COc1ccc(Cl)cc1)NCc1ccccc1` was tested, and the “hERG current change (%, negative = inhibition) at 10uM” value was -10.4%.
In the case of `O=C(CN1C(=O)NC2(CCCC2)C1=O)Nc1cccc(Cl)c1`, the “hERG current change (%, negative = inhibition) at 10uM” value is reported as 11.6%.
With `COc1ccc(Cc2c(O)nc(SCC(=O)N3CCCCCC3)[nH]c2=O)cc1` the “hERG current change (%, negative = inhibition) at 10uM” value was 2.36%.
For `CCOC(=O)C(NCCc1ccc(F)cc1)(NC(=O)CC)C(F)(F)F` (stereo not drawn), the “hERG current change (%, negative = inhibition) at 10uM” value was 1.9%.
`Cc1cc(C)cc(NC(=S)N(C)C)c1` was tested, and the “hERG current change (%, negative = inhibition) at 10uM” value was -5.83%.
In the case of `CCC(C)NCCCOc1ccc(C)cc1OC` (stereo not drawn), the “hERG current change (%, negative = inhibition) at 10uM” value is reported as -18.2%.
In the case of `O=C(Nc1ccc([N+](=O)[O-])cc1)C1COc2ccccc2O1` (stereo not drawn), the “hERG current change (%, negative = inhibition) at 10uM” value is reported as 0.793%.
For `O=C(NCCc1ccccc1F)C1CCCN(c2nc3ccccc3s2)C1` (stereo not drawn), the “hERG current change (%, negative = inhibition) at 10uM” value was -35.5%.
`NCc1ccccc1COc1ccccc1.O=C(O)/C=C\C(=O)O` was tested, and the “hERG current change (%, negative = inhibition) at 10uM” value was 0.866%.
`CC(C)CC(=O)c1c[nH]c(C(=O)NCc2ccc(F)cc2)c1` was tested, and the “hERG current change (%, negative = inhibition) at 10uM” value was -3.98%.
For `CC(=Nc1ccccc1)C1=C(O)CSC1=O`, the “hERG current change (%, negative = inhibition) at 10uM” value was -7.93%.
`O=S(=O)(c1ccc2ccccc2c1)N1CCNCC1` was tested, and the “hERG current change (%, negative = inhibition) at 10uM” value was 5.63%.
With `CC1CCCN(C(=O)COC(=O)c2ccc[nH]c2=O)C1` (stereo not drawn) the “hERG current change (%, negative = inhibition) at 10uM” value was 14.8%.
`CCCC(C(=O)NC1CCCC1)N(CCCN1CCOCC1)C(=O)c1snc(C(N)=O)c1N` (stereo not drawn) was tested, and the “hERG current change (%, negative = inhibition) at 10uM” value was -19.7%.
With `COc1ccc(S(=O)(=O)N[C@@H](C)C(=O)OCC(=O)Nc2cc3oc4ccccc4c3cc2OC)cc1` the “hERG current change (%, negative = inhibition) at 10uM” value was 3.12%.
In the case of `c1csc(-c2cnc3ccccc3n2)c1`, the “hERG current change (%, negative = inhibition) at 10uM” value is reported as -8.21%.
With `C[C@@H]1CCC[C@]2(O[C@@H](CCO)C[C@@H](O)[C@@H]2O)O1` the “hERG current change (%, negative = inhibition) at 10uM” value was 6.32%.
In the case of `Cc1n[nH]c(C)c1S(=O)(=O)N1CCC(C(=O)N2CCn3c2nc2ccccc23)CC1`, the “hERG current change (%, negative = inhibition) at 10uM” value is reported as -3.79%.
For `CCc1noc(C)c1C(=O)NC1CCCc2c1cnn2-c1ccc(C(C)(C)C)cc1` (stereo not drawn), the “hERG current change (%, negative = inhibition) at 10uM” value was 10.2%.

Reference: article PMC4336329 (PLoS ONE, 2015)
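Also: peak tail current of the secondary pulse compared with the same well before compound.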
